Measured values published in the supplement of paper PMC4604168 (melanoma cell lines).
The list shows a part of the results. Repeats are few or missing, and single values can be far off.

How the values were obtained:
Test in all cases: cell count relative to DMSO control; melanoma cells; higher = more viable cells
Conditions in all cases: library dose: low library concentration; 72 h
MZ2-MEL = tested on: MZ2-MEL
MeWo = tested on: MeWo
RPMI7951 = tested on: RPMI7951
RVH-421 = tested on: RVH-421
SkMel28 = tested on: SkMel28
SkMel2 = tested on: SkMel2
SkMel30 = tested on: SkMel30
UACC62 = tested on: UACC62
WM115 = tested on: WM115
WM1716 = tested on: WM1716
WM1745 = tested on: WM1745
WM3526 = tested on: WM3526
WM3619 = tested on: WM3619
WM451Lu = tested on: WM451Lu
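Further: cell number obtained by counting DAPI-stained nuclei in high-throughput microscope images with image analysis software, screen run in 1,536-well plates.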

Row | SMILES | cell count (MZ2-MEL) | cell count (MeWo) | cell count (RPMI7951) | cell count (RVH-421) | cell count (SkMel28) | cell count (SkMel2) | cell count (SkMel30) | cell count (UACC62) | cell count (WM115) | cell count (WM1716) | cell count (WM1745) | cell count (WM3526) | cell count (WM3619) | cell count (WM451Lu)
1 | C[C@]1(O)C[C@@H](c2nc(-c3ccc4ccc(-c5ccccc5)nc4c3)c3c(N)nccn32)C1 + Nc1ccn([C@@H]2O[C@H](CO)[C@@H](O)C2(F)F)c(=O)n1 [gemcitabine] (first compound 0.4 µM, partner dose 0.0004 µM) | 87% | 89% | 109% | 87.7% | 96.8% | 87.5% | 86.8% | 89.5% | 109% | 90.6% | 68.9% | 83.6% | 74.5% | 102%
2 | COc1cc([C@@H]2c3cc4c(cc3[C@@H](O[C@@H]3O[C@@H]5CO[C@@H](C)O[C@H]5[C@H](O)[C@H]3O)[C@H]3COC(=O)[C@H]23)OCO4)cc(OC)c1O [etoposide] + Nc1nc(F)nc2c1ncn2[C@@H]1O[C@H](CO)[C@@H](O)[C@@H]1O [fludarabine] (first compound 0.02 µM, partner dose 0.2 µM) | 95.1% | 31.5% | 99.9% | 109% | 86.7% | 9.78% | 15.6% | 78.9% | 88.7% | 95.1% | 85.3% | 38.7% | 102% | 59.3%
3 | C[C@]1(O)C[C@@H](c2nc(-c3ccc4ccc(-c5ccccc5)nc4c3)c3c(N)nccn32)C1 + C=CCNC1=C2C[C@@H](C)C[C@H](OC)[C@H](O)[C@@H](C)/C=C(\C)[C@H](OC(N)=O)[C@@H](OC)/C=C\C=C(/C)C(=O)NC(=CC1=O)C2=O [Tanespimycin] (first compound 0.4 µM, partner dose 0.002 µM) | 94.4% | 77.4% | 88.4% | 95.5% | 84.8% | 79.4% | 99.3% | 90.9% | 103% | 111% | 81.6% | 75.1% | 101% | 115%
4 | Cn1cnc2c(F)c(Nc3ccc(Br)cc3Cl)c(C(=O)NOCCO)cc21 [selumetinib] + CN(c1ncccc1CNc1nc(Nc2ccc3c(c2)CC(=O)N3)ncc1C(F)(F)F)S(C)(=O)=O [PF562271] (first compound 0.015 µM, partner dose 0.08 µM) | 85.8% | 90.7% | 84.8% | 75.3% | 92.6% | 60.5% | 57.3% | 68.8% | 74.7% | 94% | 85.6% | 72.7% | 89.3% | 83%
5 | CCN(CC)CCNC(=O)c1c(C)[nH]c(/C=C2\C(=O)Nc3ccc(F)cc32)c1C [sunitinib] + C=CCNC1=C2C[C@@H](C)C[C@H](OC)[C@H](O)[C@@H](C)/C=C(\C)[C@H](OC(N)=O)[C@@H](OC)/C=C\C=C(/C)C(=O)NC(=CC1=O)C2=O [Tanespimycin] (first compound 0.4 µM, partner dose 0.002 µM) | 121% | 69.9% | 91.8% | 115% | 107% | 110% | 67.8% | 87.7% | 101% | 130% | 77.9% | 81.1% | 110% | 98.7%
6 | Cn1cnc2c(F)c(Nc3ccc(Br)cc3Cl)c(C(=O)NOCCO)cc21 [selumetinib] + NC1(c2ccc(-c3nc4ccn5c(=O)[nH]nc5c4cc3-c3ccccc3)cc2)CCC1 [MK2206] (first compound 0.015 µM, partner dose 0.4 µM) | 89.3% | 81.9% | 93.7% | 83.8% | 89.8% | 63.9% | 51.4% | 63.2% | 59% | 95.5% | 86.4% | 72% | 56.3% | 103%
7 | C[C@]1(O)C[C@@H](c2nc(-c3ccc4ccc(-c5ccccc5)nc4c3)c3c(N)nccn32)C1 + CCN(CC)CCNC(=O)c1c(C)[nH]c(/C=C2\C(=O)Nc3ccc(F)cc32)c1C [sunitinib] (first compound 0.4 µM, partner dose 0.4 µM) | 106% | 77.4% | 88.6% | 87.3% | 86.1% | 92% | 75.3% | 85.9% | 104% | 123% | 67% | 82.3% | 82.1% | 81.6%
8 | C[C@]1(O)C[C@@H](c2nc(-c3ccc4ccc(-c5ccccc5)nc4c3)c3c(N)nccn32)C1 + Cc1cc(Nc2cc(N3CCN(C)CC3)nc(/C=C/c3ccccc3)n2)n[nH]1 [ENMD2076] (first compound 0.4 µM, partner dose 0.04 µM) | 98.8% | 101% | 101% | 107% | 98.3% | 91.2% | 76% | 72.5% | 94.7% | 105% | 79.3% | 89.6% | 97% | 124%
9 | CCN(CC)CCNC(=O)c1c(C)[nH]c(/C=C2\C(=O)Nc3ccc(F)cc32)c1C [sunitinib] + CC(C)C[C@H](NC(=O)[C@H](Cc1ccccc1)NC(=O)c1cnccn1)B(O)O [Bortezomib] (first compound 0.4 µM, partner dose 0.001 µM) | 102% | 85.2% | 116% | 92.7% | 109% | 114% | 97.3% | 73.2% | 120% | 106% | 95.3% | 107% | 49% | 110%
10 | Cn1cnc2c(F)c(Nc3ccc(Br)cc3Cl)c(C(=O)NOCCO)cc21 [selumetinib] + CS(=O)(=O)c1ccc(C(=O)Nc2ccc(Cl)c(-c3ccccn3)c2)c(Cl)c1 [vismodegib] (first compound 0.015 µM, partner dose 1 µM) | 91.8% | 83.5% | 96.5% | 108% | 95.6% | 89.2% | 82.3% | 81.7% | 92.5% | 95.1% | 86.4% | 87.1% | 72.5% | 129%
11 | Cn1cnc2c(F)c(Nc3ccc(Br)cc3Cl)c(C(=O)NOCCO)cc21 [selumetinib] + OCc1c[nH]c2ccccc12 [Indole-3-carbinol] (first compound 0.015 µM, partner dose 0.8 µM) | 87.2% | 85.5% | 98.7% | 67.5% | 95.4% | 72.5% | 50.3% | 62.7% | 87% | 91.1% | 86.6% | 84.3% | 62.7% | 109%
12 | Cn1cnc2c(F)c(Nc3ccc(Br)cc3Cl)c(C(=O)NOCCO)cc21 [selumetinib] + Nc1ccn([C@@H]2O[C@H](CO)[C@@H](O)C2(F)F)c(=O)n1 [gemcitabine] (first compound 0.015 µM, partner dose 0.0004 µM) | 89.3% | 109% | 87% | 68.9% | 101% | 80.3% | 58.3% | 94.9% | 95.8% | 118% | 78.6% | 98.5% | 73.3% | 95.9%
13 | COc1cc([C@@H]2c3cc4c(cc3[C@@H](O[C@@H]3O[C@@H]5CO[C@@H](C)O[C@H]5[C@H](O)[C@H]3O)[C@H]3COC(=O)[C@H]23)OCO4)cc(OC)c1O [etoposide] + CC1(C)CCC(c2ccc(Cl)cc2)=C(CN2CCN(c3ccc(C(=O)NS(=O)(=O)c4ccc(N[C@H](CCN5CCOCC5)CSc5ccccc5)c(S(=O)(=O)C(F)(F)F)c4)cc3)CC2)C1 [ABT263] (first compound 0.02 µM, partner dose 0.4 µM) | 88.8% | 62.1% | 60.1% | 63.6% | 93.4% | 74.9% | 70.9% | 93.3% | 81% | 76.5% | 11.6% | 88.1% | 91.3% | 84.2%
14 | Cn1cnc2c(F)c(Nc3ccc(Br)cc3Cl)c(C(=O)NOCCO)cc21 [selumetinib] + O=C(O)[C@@H]1[O][Sb](=[O])([O][Sb]2(=[O])[O][C@H]([C@H](O)CO)[C@H](O)[C@H](C(=O)O)[O]2)[O][C@H]([C@H](O)CO)[C@@H]1O [stibogluconate] (first compound 0.015 µM, partner dose 2 µM) | 84.1% | 81.9% | 93.8% | 84.9% | 86.2% | 68.1% | 58.1% | 69.5% | 87.4% | 110% | 90.1% | 61.9% | 57.2% | 96%
15 | CCN(CC)CCNC(=O)c1c(C)[nH]c(/C=C2\C(=O)Nc3ccc(F)cc32)c1C [sunitinib] + C#Cc1cccc(Nc2ncnc3cc(OCCOC)c(OCCOC)cc23)c1 [erlotinib] (first compound 0.4 µM, partner dose 0.8 µM) | 101% | 76.9% | 78.3% | 114% | 90.5% | 114% | 64% | 78.8% | 95.4% | 123% | 63.9% | 90.2% | 88.3% | 86%
16 | Cn1cnc2c(F)c(Nc3ccc(Br)cc3Cl)c(C(=O)NOCCO)cc21 [selumetinib] + Cn1nnc2c(C(N)=O)ncn2c1=O [temozolomide] (first compound 0.015 µM, partner dose 2 µM) | 83.4% | 100% | 98% | 82.6% | 84.4% | 65.1% | 59.8% | 65.1% | 90% | 114% | 108% | 77.9% | 70.8% | 104%
17 | CCN(CC)CCNC(=O)c1c(C)[nH]c(/C=C2\C(=O)Nc3ccc(F)cc32)c1C [sunitinib] + CN1CCN(c2ccc3nc(-c4c(N)c5c(F)cccc5[nH]c4=O)[nH]c3c2)CC1 [Dovitinib] (first compound 0.4 µM, partner dose 0.1 µM) | 88% | 90.1% | 115% | 113% | 73.5% | 93% | 73.2% | 91.5% | 105% | 149% | 72.4% | 77.6% | 81% | 104%
